In PMC4484057, “Daple is a novel non-receptor GEF required for trimeric G protein activation in Wnt signaling” (eLife, 2015):

Target: T1, His-Daple-CT (aa 1650–2028) (human, UniProt Q9P219-1 1650-2028)
T1 construct: Cloned from myc-Daple pcDNA 3.1 into pET28b between NdeI/EcoRI; also called His-Daple-CT WT; Daple-CT-WT; source: E. coli BL21 (DE3), purified (HisPur Cobalt Resin)
T1 sequence (looked up): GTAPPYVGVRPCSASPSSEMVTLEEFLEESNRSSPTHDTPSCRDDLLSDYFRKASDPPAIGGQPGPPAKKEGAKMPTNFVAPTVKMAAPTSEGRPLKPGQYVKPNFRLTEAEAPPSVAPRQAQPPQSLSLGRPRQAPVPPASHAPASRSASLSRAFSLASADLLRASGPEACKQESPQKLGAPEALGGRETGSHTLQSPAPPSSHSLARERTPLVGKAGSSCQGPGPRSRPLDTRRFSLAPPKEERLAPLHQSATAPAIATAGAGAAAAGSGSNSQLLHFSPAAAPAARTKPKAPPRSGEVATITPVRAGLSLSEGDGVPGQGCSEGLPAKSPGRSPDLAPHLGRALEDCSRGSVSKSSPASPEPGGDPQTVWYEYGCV
Experiment: pull-down; GST-Gα protein (5 µg) preloaded with GDP (inactive) on glutathione beads; purified His-Daple-CT (3 µg); 4 hr at 4°C; 50 mM Tris-HCl pH 7.4, 100 mM NaCl, 0.4% NP-40, 10 mM MgCl2, 5 mM EDTA, 30 µM GDP, 2 mM DTT; immunoblot
Details: both partners purified

binding result: binds
B1: GST-Gαi1 (natural protein)
chain: not shown
notes: Gαi1, rat, in pGEX-4T-1; also called GST-fused Gαi1; source: E. coli BL21 (DE3), purified (glutathione-Sepharose 4B)
